Results: article PMC3563642, “MERTK Interactions with SH2-Domain Proteins in the Retinal Pigment Epithelium” (PLoS ONE, 2013)

Molecular target: T1, 6xHis-rMERTK(571–999), full-length human MERTK cytoplasmic domain (human, UniProt Q12866 571-999, autophosphorylated on tyrosine (incubated with ATP/MgCl2); sites Y749, Y753, Y754 were mapped on rMERTK571–864, not on this construct)
T1 construct: Expressed from the pET28a-LIC vector; also called MERTK intracellular domain; source: E. coli BL21 DE3 Gold, purified (Ni2+-NTA, Sephacryl S-200 HR), autophosphorylated with 10 mM ATP, 10 mM MgCl2
T1 sequence (looked up): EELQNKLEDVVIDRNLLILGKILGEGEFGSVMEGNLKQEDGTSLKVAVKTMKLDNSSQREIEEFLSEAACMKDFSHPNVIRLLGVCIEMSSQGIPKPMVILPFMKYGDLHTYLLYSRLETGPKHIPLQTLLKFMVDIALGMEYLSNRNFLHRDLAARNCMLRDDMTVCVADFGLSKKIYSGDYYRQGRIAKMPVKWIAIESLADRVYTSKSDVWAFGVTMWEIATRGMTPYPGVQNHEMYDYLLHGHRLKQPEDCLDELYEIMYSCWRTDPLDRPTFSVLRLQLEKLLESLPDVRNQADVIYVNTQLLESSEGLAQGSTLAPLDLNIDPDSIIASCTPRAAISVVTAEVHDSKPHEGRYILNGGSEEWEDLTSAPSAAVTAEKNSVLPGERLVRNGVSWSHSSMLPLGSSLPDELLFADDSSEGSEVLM
Assay: pull-down; Ni2+-NTA pull down: GST-rSH2-domain protein (10 µg) incubated with autophosphorylated 6xHis-rMERTK571–999 (10 µg) in 50 mM NaH2PO4, 300 mM NaCl, 10 mM imidazole, 0.1 µM PMSF, 1 h at 4°C, then Ni2+-NTA resin 0.5 h; washes with 50 mM imidazole, elution with 500 mM imidazole; Coomassie-stained SDS gels; negative control omits rMERTK
Settings: both partners purified

- binding result: binds
B1: SRC GST-SH2 domain fusion protein (domain or fragment)
chain: not shown
notes: pGEX2T construct from a library of SH2 domains; also called rSH2-domain fusion protein corresponding to SRC; recombinant SRC; source: E. coli BL21 DE3 Gold, purified (glutathione-agarose, Sephacryl S-200 HR)
